From PubChem BioAssay AID463173 (ICCB-Longwood Screening Facility, Harvard Medical School, 2010)
About 4,300 (8.3%) of roughly 52,000 compounds were called active. No stated cut-off is given here; in the data, active means survival mostly below about 52% (no sharp cut-off); inactive means mostly above about 56%. The list shows a part of the results.

The molecules below were run on DeltatarO mutant (assay: growth inhibition of S. aureus wild type versus tarO mutant, primary screen, teichoic acid synthesis inhibitors, RN4220, OD600 (AID 463173)). Details: OD600, 18 h, active compounds read low, screened at 18.75 µg/mL (by protocol).
COc1ccc(-c2nc(CSc3nnc(C)n4c3cc3sccc34)c(C)o2)cc1 was tested, and the survival was inactive: 107%. With Oc1ccccc1-c1nc2ccc(Cl)cn2c1Nc1ccc2c(c1)OCCO2 the survival was inactive: 82%. In the case of O=C(Nc1c(C(=O)N2CCN(c3ccccc3F)CC2)oc2ccccc12)c1ccc(Br)o1, the survival is reported as inactive: 80%. For COc1ccc(-c2ccc(=O)n(CC(=O)Nc3ccccc3C(F)(F)F)n2)cc1, the survival was inactive: 79%. In the case of CCS(=O)(=O)N1CCc2cc(C(=O)Nc3cccc(NC(C)=O)c3)ccc21, the survival is reported as active: 42%. For Cc1ccc(-n2c(-c3cccc(C)c3)nc3c(cnn3-c3ccccc3)c2=O)cc1, the survival was active: 19%. For O=S(=O)(c1ccc(F)cc1)N1CCCCC1, the survival was inactive: 86%. For Cn1c(=O)oc2cc(S(=O)(=O)N3CCCC(C(=O)N4CCN(c5ccc(F)cc5)CC4)C3)ccc21 (stereo not given), the survival was inactive: 92%. For CC(Oc1ccc(Br)cc1)C(=O)N(Cc1nc(-c2ccccc2)no1)C(C)C (stereo not given), the survival was inactive: 97%. With O=C(NCCCN1CCN(c2ccccc2)CC1)c1ccc2nc(CCc3ccccc3)oc2c1 the survival was inactive: 73%. CCc1nn2c(=O)cc(COC(=O)c3ccccc3NC(=O)c3ccc(C(C)(C)C)cc3)nc2s1 was tested, and the survival was inactive: 91%. In the case of O=C(O)C1CSC(c2cccs2)N1 (stereo not given), the survival is reported as inactive: 83%. In the case of CN(CCCN1C(=O)c2ccccc2C1=O)CCCN1C(=O)c2ccccc2C1=O, the survival is reported as inactive: 93%. Cc1cccc(N(CC(=O)NCCSc2ccc(Cl)cc2)S(C)(=O)=O)c1C was tested, and the survival was active: 38%. With Cc1ccc(-c2c(C(=O)N(C)Cc3ccccc3)oc(=O)c3ccccc23)cc1 the survival was active: 24%. In the case of COc1ccc(CSC(=N)N)cc1Cl, the survival is reported as inactive: 97%. In the case of Cc1nn2c(=O)cc(COC(=O)C(c3ccccc3)c3ccccc3)nc2s1, the survival is reported as inactive: 90%. With COc1ccc(CNC(=O)c2cc3c(=O)[nH]c4ccccc4c3n2C)c(OC)c1 the survival was inactive: 68%. In the case of Cc1ccc2c(c1)N(C(=O)N1CCC(C(=O)NCc3cccs3)CC1)CC(C)O2 (stereo not given), the survival is reported as inactive: 91%. In the case of COc1ccc(Cl)cc1NC(=O)NCc1noc2ccccc12, the survival is reported as inactive: 35%. For CC(NC(=O)CN1C(=O)COc2ccc(Cl)cc21)c1ccccc1 (stereo not given), the survival was inactive: 119%. With COc1ccc(CCNC(=O)CCCn2c(=O)c3ccccc3n(CC(=O)Nc3ccc(C)cc3Cl)c2=O)cc1OC the survival was inactive: 87%. In the case of CCc1ccc2[nH]c(=O)c(CNCCO)cc2c1, the survival is reported as inactive: 78%. COc1cccc(-c2cn3c(n2)sc2cc(C(=O)NCCC4=CCCCC4)ccc23)c1 was tested, and the survival was inactive: 52%. For O=C(CSc1oc(-c2ccc(F)cc2)nc1S(=O)(=O)c1ccc(Cl)cc1)c1ccccc1, the survival was active: 45%. With Cc1cccc(CCNC(=O)c2nn(C)c3c2CSc2ccccc2-3)c1 the survival was inactive: 77%. For O=C(c1ccc2c(c1)N(Cc1cccc(Cl)c1)C(=O)c1ccccc1S2(=O)=O)N1CCCCCC1, the survival was inactive: 69%. Cc1ccc(NC(=O)C2CCN(C(=O)c3cnn(-c4ccccc4)c3-n3cccc3)CC2)cc1C was tested, and the survival was inactive: 65%. O=C(NCC(c1cccnc1)N1CCc2ccccc2C1)C(=O)Nc1ccc(F)cc1F (stereo not given) was tested, and the survival was inactive: 107%. In the case of Cc1cccc(-c2nc(C)c(CCNC(=O)c3cccs3)s2)c1, the survival is reported as inactive: 84%. In the case of O=C(CN1CCCN(Cc2cccc(F)c2)S1(=O)=O)Nc1ccc2c(c1)OCCO2, the survival is reported as inactive: 80%. CC(C)c1ccc(NC(=O)CCNS(=O)(=O)c2ccc3c(c2)oc(=O)n3C)cc1 was tested, and the survival was inactive: 88%. In the case of C=C(C)Cn1c(SCC(=O)Nc2cccc(C)c2)nc2sc3c(c2c1=O)CCCC3, the survival is reported as inactive: 132%. O=C(CCS(=O)(=O)c1nc(-c2ccc3c(c2)OCO3)cc(C(F)(F)F)n1)Nc1ccc(F)cc1F was tested, and the survival was inactive: 79%. With COC(=O)c1nnn(-c2ccc(Cl)cc2)c1C(=O)OC the survival was inactive: 129%. For Cc1ccc(-n2ncc(C(=O)N3CCN(C(=O)c4ccco4)CC3)c2C2CCN(C(=O)OC(C)(C)C)CC2)cc1, the survival was inactive: 55%. CCS(=O)(=O)c1ncc(Cl)c(C(=O)Nc2c(C(=O)c3ccc(C)cc3)oc3ccccc23)n1 was tested, and the survival was active: 50%. For CCN(CC)C(=O)C1CCN(c2cc(C)nc3c(-c4ccc(OC)c(OC)c4)c(C)nn23)CC1, the survival was inactive: 79%. Cn1c(C(=O)N2CCCC(C(=O)N3CCN(c4ccccc4)CC3)C2)cc2sccc21 (stereo not given) was tested, and the survival was inactive: 89%. With CCc1ccc(NC(=O)CSc2cn(CC(=O)N3CCOCC3)c3ccccc23)cc1 the survival was inactive: 86%. In the case of CCCCNC(=O)CSC1=Nc2ccccc2C2=NC(CCC(=O)NCc3ccccc3OC)C(=O)N12 (stereo not given), the survival is reported as active: 0%. In the case of Clc1ncnc2sc3c(c12)CCCC3, the survival is reported as inactive: 86%. CCOc1ccc(CN(C(=O)c2cc(=O)c3cc(Cl)ccc3o2)C2CCS(=O)(=O)C2)cc1 (stereo not given) was tested, and the survival was inactive: 104%. With CCCCOC(=O)c1c(C)oc2ccc(NS(=O)(=O)c3ccc(F)cc3C)cc12 the survival was active: 10%. For CCc1ccc(CNc2ncnc3onc(-c4ccc(Cl)cc4)c23)cc1, the survival was inactive: 50%. In the case of COc1ccc(-c2cc(C(F)(F)F)n3nc(C(=O)Nc4sc5c(c4C(=O)OC(C)C)CCCC5)cc3n2)cc1OC, the survival is reported as inactive: 138%. With COc1ccc(N2CCN(C(CNC(=O)c3cccc(OC)c3)c3cccnc3)CC2)cc1 (stereo not given) the survival was inactive: 71%. For Cc1cccc(OC(=O)c2nc(SCc3ccccc3F)ncc2Cl)c1, the survival was inactive: 98%. With Cc1ccc(Nc2nc3c(S(=O)(=O)c4ccccc4)nnn3c3ccc(Cl)cc23)c(C)c1 the survival was inactive: 143%. For Cc1nc2ccn(Cc3cccs3)c(=O)c2cc1C(=O)NCc1ccc(Cl)cc1, the survival was inactive: 49%. With COc1cc2nc(Nc3ccc(C)c(C)c3)nc(N)c2cc1OC the survival was inactive: 76%. CC(CC(=O)NCc1ccc(Cl)cc1Cl)CC1=NS(=O)(=O)c2ccccc2N1 (stereo not given) was tested, and the survival was inactive: 117%. For COc1ccc(CCNC(=O)c2cc(=O)c3c(C)cc(C)cc3o2)cc1OC, the survival was inactive: 57%. With COC(=O)c1ccc(NC(=O)C(=O)NCCc2sc3nc(-c4ccc(OC)cc4)nn3c2C)cc1 the survival was inactive: 83%. For O=C(CCn1c(=O)c2cccn2c2cccnc21)NCc1ccc(Cl)cc1, the survival was inactive: 77%. COc1ccccc1NC(=O)C1=C(C)Nc2c(C(=O)Nc3cccc(C)c3)cnn2C1c1ccccc1C (stereo not given) was tested, and the survival was inactive: 89%. COc1cc2c(cc1OC)n(CC(=O)Nc1ccccc1)c(=O)n1nc(-c3ccccc3)nc21 was tested, and the survival was inactive: 67%. For Cc1ccc(/C=C/c2nc3ccccc3n2S(=O)(=O)c2cccc(Cl)c2)cc1, the survival was inactive: 77%. O=C1COc2cc(S(=O)(=O)CCC(=O)N3CCN(c4cccc(Cl)c4)CC3)c(Cl)cc2N1 was tested, and the survival was inactive: 66%. In the case of CCC(C)NC(=O)c1sc2nc(C)c(C(=O)Nc3ccc(C)cc3C)c(-c3ccc(Cl)cc3)c2c1N (stereo not given), the survival is reported as inactive: 64%. In the case of CCOc1ccc(CNC(=O)Cn2nc(C)c3nn(-c4ccc(Cl)cc4)c(C)c3c2=O)cc1OC, the survival is reported as inactive: 92%. CCN(CC)C(=O)C1CCN(S(C)(=O)=O)CC1 was tested, and the survival was inactive: 103%. For COc1ccc(CNCc2c(C(=O)O)c(C)n(Cc3ccc(Cl)cc3)c2C)c(OC)c1, the survival was inactive: 76%. Cc1ccc2c(c1)c1c(c(=O)n(-c3ccccc3C)c(=O)n1CC(=O)NCCC1=CCCCC1)n2C was tested, and the survival was inactive: 71%. In the case of CC(=O)c1cc(-c2ccc(F)cc2)n(CCC(=O)Nc2nc3c(C)cccc3s2)c1C, the survival is reported as inactive: 77%. For Cc1nn(CC(=O)NCCc2ccccc2Cl)c(=O)c2nn(-c3ccccc3)c(C)c12, the survival was inactive: 118%. For O=S(=O)(c1ccccc1)N1CCC(c2ccncc2)CC1, the survival was inactive: 92%. In the case of CSc1nsc(NC(=O)Nc2ccccc2C(F)(F)F)n1, the survival is reported as active: 13%. With C(=Nc1ccccc1)c1ccc(N2CCOCC2)cc1 the survival was inactive: 102%. With O=C(Nc1nc2ccccc2s1)NC1CCCCC1 the survival was inactive: 66%. With O=C(c1ccc(S(=O)(=O)N2CCOCC2)cc1)n1nnc2ccccc21 the survival was inactive: 119%. Cc1ccc(CNS(=O)(=O)c2c(C)nc3scc(C)n3c2=O)cc1 was tested, and the survival was inactive: 141%. In the case of CC(C)(C)c1ccc(S(=O)(=O)NCc2nc3cccnc3n2Cc2ccccc2Cl)cc1, the survival is reported as inactive: 55%. In the case of Cc1ccc(-c2cc(C(=O)Nc3c(C(=O)c4ccccc4)oc4ccccc34)no2)cc1F, the survival is reported as inactive: 49%. COc1ccccc1/C=N/NC(=O)c1ccc(=O)n(C)c1 was tested, and the survival was inactive: 98%. With Cc1ccc(Cc2nc3ccccc3nc2SCC(=O)Nc2cccc(C(F)(F)F)c2)cc1 the survival was inactive: 67%. O=C(CN1CCSc2ccccc21)N1CCN(c2cccc(Cl)c2)CC1 was tested, and the survival was inactive: 115%. In the case of COC(=O)c1cnn(-c2ccc(C(=O)Nc3ccc(C(C)=O)cc3)cc2)c1N, the survival is reported as inactive: 63%. O=C(CNCC1CCCO1)N1CCCC1 (stereo not given) was tested, and the survival was inactive: 95%. In the case of Cc1ccc(-n2ncc3c(NC4CCCCC4)ncnc32)cc1, the survival is reported as inactive: 88%. NC(=O)c1ccc(N2CCCCC2)c(N2C(=O)C3CC=CCC3C2=O)c1 (stereo not given) was tested, and the survival was inactive: 94%. In the case of CCCSCCCNC(=O)c1ccc2c(c1)nc1n2CCCCC1, the survival is reported as inactive: 84%. For CC(C)c1cc(-c2nc(-c3ccccc3)no2)n[nH]1, the survival was inactive: 94%. In the case of CN(CC(=O)Nc1ccccc1Cl)S(=O)(=O)c1ccc(C(=O)N2CCOCC2)s1, the survival is reported as inactive: 102%. In the case of COc1ccc(S(=O)(=O)N2CCN(Cc3ccc4c(c3)OCO4)CC2)cc1OC, the survival is reported as active: 43%. With Cc1nc(N2CCCC2)c2c(C(=O)N3CCN(c4cccc(C)c4C)CC3)c(C)oc2n1 the survival was inactive: 94%. For CCC(=O)Nc1ccc2nc(SCc3ccc(C)cc3)sc2c1, the survival was inactive: 84%. In the case of CC(C)c1ccccc1NC(=O)CN1C(=O)c2cccc3cccc1c23, the survival is reported as active: 40%. For O=C(CN1CCCCC1)N1CCc2ccccc21, the survival was inactive: 70%. In the case of O=C(CSc1nc(-c2ccccc2)[nH]c1-c1ccccc1)Nc1ccc2c(c1)OCCO2, the survival is reported as inactive: 59%.
